Measurements from US5760092A, “Allocolchinones and uses thereof” (Brandeis University, priority 1996, dated 1998).
Several values for one entry are separate records, joined by “and”; a condition that tells them apart may be missing. Equal values may be shown once. Read-outs that look alike come from different tables or passages of the source.

Tests used:
[1] = test system: SK-MEL-5 melanoma cells
[2] = test system: TK-10 renal cancer cells; assay: cells; conditions: Homo sapiens, TK-10
[3] = test system: HCC-2998 colon cancer cells
[4] = test system: TK-10 renal cancer cells
[5] = test system: MDA-N breast cancer cells; assay: cells; conditions: Homo sapiens, read-out: LC50
[6] = test system: HCC-2998 colon cancer cells; assay: cells; conditions: Homo sapiens, HCC 2998
[7] = test system: MDA-MB-435 breast cancer cells; assay: cells; conditions: Homo sapiens, MDA-MB-435, read-out: LC50
[8] = test system: T-47D breast cancer cells; assay: cells; conditions: Homo sapiens, T47D
[9] = test system: NCI-H522 non-small cell lung cancer cells
[10] = test system: MDA-MB-231/ATCC breast cancer cells
[11] = test system: IGR-OV1 ovarian cancer cells

Question: With `COc1cc2c(c(OC)c1OC)-c1ccc(C(C)=O)cc1C(NC(C)=O)CC2` (centres unmarked) as the compound, how does the TGI [1] read?
Answer: > 1000 nM and 886 nM

Question: And the GI50 [2]?
Answer: > 1000 nM

Question: And the GI50 [3]?
Answer: 37.3 nM

Question: What about the TGI [4] of the same compound?
Answer: > 1000 nM

Question: What about the CC50 [5] of the same compound?
Answer: > 100000 nM

Question: What about the GI50 [6] of the same compound?
Answer: 45.3 nM

Question: And the CC50 [7]?
Answer: > 1000 nM

Question: And the GI50 [8]?
Answer: > 1000 nM

Question: What about the TGI [9] of the same compound?
Answer: 1360 nM

Question: And the TGI [10]?
Answer: > 100000 nM

Question: What about the TGI [11] of the same compound?
Answer: > 1000 nM
